Results taken from article PMC3335016, “Analysis of the Nse3/MAGE-Binding Domain of the Nse4/EID Family Proteins” (PLoS ONE, 2012).
These are yes or no findings as the source states them, for the method shown. Tags and fused reporters may be left off the sequences shown.

Legend:
Assay in all cases: ELISA; PEPSCAN ELISA; biotinylated EID2 peptides (400 nM) on streptavidin-coated plates; His-S-MAGEC2(129-339) 200–400 nM, 4°C overnight; anti-His detection; both purified
EID2 peptide #2 (R198A) = biological target: T1, EID2 peptide #2 (R198A) (human, R198A (stands in the printed letters), biotin, linked via the SGSG spacer)
T1 construct: source: synthetic peptide (Mimotopes)
T1 peptide: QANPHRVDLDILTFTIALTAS

EID2 peptide #6 (R202A) = biological target: T2, EID2 peptide #6 (R202A) (human, R202A (stands in the printed letters), biotin, linked via the SGSG spacer)
T2 construct: source: synthetic peptide (Mimotopes)
T2 peptide: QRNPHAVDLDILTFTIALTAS

EID2 peptide #14 (F210A) = biological target: T3, EID2 peptide #14 (F210A) (human, F210A (stands in the printed letters), biotin, linked via the SGSG spacer)
T3 construct: source: synthetic peptide (Mimotopes)
T3 peptide: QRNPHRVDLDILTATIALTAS

EID2 peptide #16 (I212A) = biological target: T4, EID2 peptide #16 (I212A) (human, I212A (stands in the printed letters), biotin, linked via the SGSG spacer)
T4 construct: source: synthetic peptide (Mimotopes)
T4 peptide: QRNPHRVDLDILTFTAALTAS

EID2 peptide #17 (L214A) = biological target: T5, EID2 peptide #17 (L214A) (human, L214A (stands in the printed letters), biotin, linked via the SGSG spacer)
T5 construct: source: synthetic peptide (Mimotopes)
T5 peptide: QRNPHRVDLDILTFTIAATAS

B1: His-S-MAGEC2(129-339) (domain or fragment, human, UniProt Q9UBF1 129-339, looked up)
chain: GLPDSESSFTYTLDEKVAELVEFLLLKYEAEEPVTEAEMLMIVIKYKDYFPVILKRAREFMELLFGLALIEVGPDHFCVFANTVGLTDEGSDDEGMPENSLLIIILSVIFIKGNCASEEVIWEVLNAVGVYAGREHFVYGEPRELLTKVWVQGHYLEYREVPHSSPPYYEFLWGPRAHSESIKKKVLEFLAKLNNTVPSSFPSWYKDALKD
notes: source: E. coli C41, purified (His-TRAP column, FPLC)
binding (EID2 peptide #2 (R198A)): no binding (tested: less then 20% of WT affinity)
binding (EID2 peptide #6 (R202A)): no binding (tested: less then 20% of WT affinity)
binding (EID2 peptide #14 (F210A)): no binding (tested: less then 20% of WT affinity)
binding (EID2 peptide #16 (I212A)): no binding (tested: less then 20% of WT affinity)
binding (EID2 peptide #17 (L214A)): no binding (tested: less then 20% of WT affinity)
